Laboratory results taken from PubChem BioAssay AID651820 (National Center for Advancing Translational Sciences (NCATS), 2012).
Among all 340,000 compounds or so, about 12,000 (3.5%) were called active. Inconclusive means that the source gave no clear call. Such entries were picked first, then a sample of the others. Calls follow the shape of the dose curve; as a rule, active = well fitted inhibition curve with a large enough effect; inconclusive = small, poorly fitted or top-dose-only effect, or another doubt; inactive = no such curve, though single readings can be large or run the other way. Potencies of inconclusive entries are left out as doubtful fits.

Test: qHTS Assay for Inhibitors of Hepatitis C Virus (HCV)
Details: Huh7.5.1 HCVcc-Cre (HCVcc is cell-culture hepatitis C virus) infection, luciferase reporter, 44 h; series mostly up to 41.8 µM
Method in brief: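 Infectious HCV cell culture screen: compound-treated cells (1,000/well, pre-plated 4 h) are infected with HCVcc-Cre at roughly 0.5 moi and grown 44 h. Infection is quantified by luciferase signal after 15 min substrate incubation at room temperature.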
Potency is read from the fitted curve at half-maximal effect; tags tell the direction and shape of the fitted curve.

SMILES	Potency
CCCNC(=O)c1cc2nc(-c3ccccc3)cc(C(F)(F)F)n2n1	inconclusive [inhibitor, full curve]
CCCN1CCC(N(CCc2ccccc2)Cc2ccccc2)CC1	inconclusive [inhibitor, partial curve]
O=C(Nc1cccc(Cl)c1N1CCCCC1)c1ccc2c(c1)OCCO2	inconclusive [inhibitor, full curve, poor fit]
Cc1cccc(NC(=O)CCNC(=O)c2ccc(Br)cc2)c1C	inactive
Cc1sc2nc(SCC(=O)NCc3ccco3)n(C)c(=O)c2c1C	inconclusive [inhibitor, single point]
Cc1ccc(C(=O)N2CCN(c3ccccc3)CC2)cc1S(=O)(=O)N1CCCC1	inconclusive [inhibitor, single point]
O=C(COc1ccc(S(=O)(=O)N2CCCC2)cc1)NCc1ccccn1	inactive
Cc1ccc(NC(=O)c2ccc(C(=O)c3ccccc3)cc2)nc1	inconclusive [inhibitor, single point]
COC(=O)c1c(-c2ccccc2OC)sc2ccccc12	inconclusive [inhibitor, single point]
Nc1cc(Cl)ccc1C(=O)OCC(=O)N1CCCC1	inactive
CCCN(CC(=O)Nc1cccc(S(N)(=O)=O)c1)CC(=O)Nc1ccc(F)c(F)c1F	inconclusive [inhibitor, single point]
O=C(N/N=C/c1cn(-c2ccccc2)nc1-c1cc2ccccc2o1)c1c[nH]c2ccccc12	active: 11.2 µM
O=C(C1CCN(c2ncnc3c2sc2cccc(F)c23)CC1)N1CCOCC1	inconclusive [inhibitor, single point]
CC[C@H](C)[C@H]1CNC(=S)N1CC1CCN(CC2CCC(C)CC2)CC1 (some centres undefined)	inconclusive [inhibitor, full curve]
O=C1CSC(=S)N1Cc1cccnc1	inconclusive [inhibitor, single point]
CCOC(=O)c1c(-c2ccccc2)oc2ccc(OCC)cc12	inconclusive [inhibitor, partial curve]
O=C(NCc1cccc(F)c1)c1cccc2c1C(=O)c1ccc(N3CCCC3)cc1S2(=O)=O	inconclusive [inhibitor, partial curve]
CCOc1ccccc1NC(=O)CCn1ccnc1	inactive
Cc1ccc(/C(C#N)=C\c2cn(C)c3ccccc23)cc1	active: 6.31 µM
O=C(Nc1ccccn1)c1cc2cc([N+](=O)[O-])ccc2s1	inactive
CCC(C)NC(=S)Nc1ccc2nc(N3CCOCC3)cc(C)c2c1 (centres undefined)	active: 11.2 µM
COc1ccccc1NS(=O)(=O)c1cc(NC(=O)CCc2nc3ccccc3c(=O)[nH]2)ccc1C	inconclusive [inhibitor, single point]
COc1ccc(NC2=C(C(C)=O)C(c3ccccc3)C(C(C)=O)C(C)(O)C2)cc1 (centres undefined)	inactive

SMILES	Potency
CCOc1ccc(NC(=O)CN(C)C(=O)c2cccc(S(=O)(=O)N3CCCC3)c2)cc1OCC	inconclusive [inhibitor, partial curve]
Cc1[nH]c2ccccc2c1C(=O)COC(=O)c1nccnc1N	inactive
Cc1cccc(OCCCn2c(CCNC(=O)C(C)C)nc3ccccc32)c1	inconclusive [inhibitor, single point]
C=CCn1cc(CN2CCC(C(=O)Nc3cccc(-c4cccc(F)c4)c3)CC2)c(C)n1	inconclusive [inhibitor, single point]
Cc1ccc(NC(=O)CCNS(=O)(=O)c2cccc3nsnc23)cc1F	inactive
Cc1ccc(S(=O)(=O)CCC(=O)N2CCN(c3ccc([N+](=O)[O-])cc3)CC2)cc1	active: 12.6 µM
CC(C)(C)NC(=O)CSc1nsc(SCC(=O)NC(C)(C)C)c1C#N	inconclusive [inhibitor, single point]
NC(=O)c1cc(-c2csc(NCCc3ccccc3)n2)ccc1O	inconclusive [inhibitor, single point]
COc1ccc(OCCNC(=O)c2ccccc2OCC(=O)Nc2ccc(NC(C)=O)cc2)cc1	inconclusive [inhibitor, partial curve]
CC(C)NC(=O)c1c(O)c2ccccc2[nH]c1=O	inconclusive [inhibitor, single point]
Cc1ccc(NC(=O)c2ccc(=O)[nH]n2)cc1S(=O)(=O)Nc1ccc(SC(F)F)cc1	active: 3.16 µM
CCOC(=O)[C@H]1[C@H]2COc3cc(OC)ccc3[C@@H]2N2C(=O)c3cc(OC)ccc3NC(=O)[C@@]12C	inconclusive [inhibitor, single point]
Cc1ccc(-n2nnnc2SC(C)C(=O)Nc2ccccc2-c2ccccc2)cc1 (centres undefined)	inactive
Fc1ccc(CN2CC[C@H]3C=CCc4cccc(c43)C2)cc1	inactive
CCOC(=O)c1cc(CC)sc1NC(=O)COC(=O)C1CCC1	inconclusive [inhibitor, partial curve]
CCC1Oc2ccc(C)cc2N(CC(=O)N2CCOCC2)C1=O (centres undefined)	inactive
COC(=O)c1[nH]c2c(c1C)C(=O)CC(c1ccccc1)C2 (centres undefined)	inconclusive [inhibitor, full curve, poor fit]
CC(C)C(=O)Nc1cccc(COc2ccccc2CN(Cc2ccccc2)C(=O)OC(C)(C)C)c1	inconclusive [inhibitor, single point]
COc1ccc(C(=O)Nc2nc3c(s2)Cc2cc(OC)ccc2-3)cc1	active: 12.6 µM
CC(C)(C)c1cc(NC(=O)COC(=O)c2ccc(O)cc2O)n(-c2ccccc2)n1	inconclusive [inhibitor, partial curve]
Cc1c(CN2CCC(CO)(Cc3cccc(C(F)(F)F)c3)CC2)c2ccccc2n1C	inconclusive [inhibitor, single point]
CCCNc1nc2c(c(=O)n(C)c(=O)n2C)n1CCCc1ccccc1	inconclusive [inhibitor, single point]
O=C(O)CCCCCCNC(=O)c1cncc(O)c1	inactive

SMILES	Potency
CCC(CO)Oc1cc(NC(=O)c2ccc(C)cc2)c2ncn(C(C)C)c2c1 (centres undefined)	inconclusive [inhibitor, partial curve]
Cc1nn(-c2ccccc2)c(C)c1/C=N/n1c(-c2ccc(C(C)(C)C)cc2)n[nH]c1=S	inconclusive [inhibitor, single point]
NC(=O)CC(NC(=O)Cc1cccc2ccccc12)c1ccc(N2CCc3ccccc3C2)c([N+](=O)[O-])c1 (centres undefined)	inconclusive [inhibitor, partial curve, poor fit]
COCCN(CCOC)c1nc(-c2ccc(Cl)cc2)nc2ccccc12	inconclusive [inhibitor, single point]
O=S(=O)(c1ccc(Cl)s1)N1CCN(CCc2ccccc2)CC1	inconclusive [inhibitor, single point]
CCOc1ccc(NC(=O)CN(C)C(=O)c2cc(-c3ccco3)nc3ccccc23)cc1OCC	inconclusive [inhibitor, full curve]
Cn1c(SCC(=O)Nc2nncs2)nnc1C1CC1	inactive
O=C(Nc1nc(-c2ccccn2)cs1)c1ccc2c(c1)OCCO2	inconclusive [inhibitor, partial curve]
Cc1ccc2nc(NC(=O)CN3CCOCC3)sc2c1	inconclusive [inhibitor, partial curve, poor fit]
C/C(=N\OC(=O)C1CC1)C1CC1c1ccc(F)cc1 (centres undefined)	inconclusive [inhibitor, full curve, poor fit]
COc1ccc(/C(C)=N/NC(=O)CNC(=O)/C=C\c2ccccc2)c(OC)c1	inactive
O=C(NCC(O)c1ccccc1)c1cccc(S(=O)(=O)N2CCOCC2)c1 (centres undefined)	inconclusive [inhibitor, single point]
Cc1ccc(C(C)C)c2oc(=O)cc(-c3ccc(-c4ccc(C(F)(F)F)cc4)cc3)c12	inconclusive [inhibitor, single point]
COc1ccc(C2c3cc4c(cc3OC(N3CCOCC3)C2C)OCO4)c(OC)c1 (centres undefined)	inconclusive [inhibitor, single point]
O=[N+]([O-])c1c(Nc2ccccc2O)cc(Cl)c2nonc12	active: 11.2 µM
CCn1c(SCC(=O)Nc2ccc3c(c2)OCCO3)nnc1-c1c[nH]c2ccccc12	inconclusive [inhibitor, single point]
Cc1ccc(CSCc2ccc(C(=O)NC3CCCC3)o2)cc1	inconclusive [inhibitor, partial curve, poor fit]
CCc1cc2c3c(c(=O)oc2cc1OC)CCCC3	inconclusive [inhibitor, single point]
COc1cc(CCCN2CCNC[C@@H]2c2ccccc2)cc(OC)c1OC	inactive
Cc1ccccc1OCCNC(=O)c1ccccc1Sc1ccccc1C#N	inconclusive [inhibitor, single point]
Cc1cc(C(F)(F)F)nn1CC(=O)NCc1ccccc1	inactive
COc1ccc(CCNC(=O)CN(C)S(=O)(=O)c2ccc3nc(C)sc3c2)cc1OC	inconclusive [inhibitor, single point]
COc1ccccc1CNC(=O)CCCN1C(=O)NC2(CCCC2)C1=O	inactive
